The values below come from PubChem BioAssay (NCI).

Common to all, as to assay: NCI-60 cell line screen, 48 h
The subject of assay [1] is M14 melanoma.
Assay [2] concerns MDA-N.
In assay [3] the test system is NCI/ADR-RES ovarian.
Assay [4] deals with OVCAR-5 ovarian.
The test system of assay [5] is SF-539 CNS.
The subject of assay [6] is BT-549 breast.
Assay [7] relates to HS 578T breast.
Assay [8] deals with K-562 leukemia.
Assay [9] concerns KM12 colon.
Assay [10] has as its system MALME-3M melanoma.
In assay [11] the test system is MCF7 breast.
Assay [12] concerns MDA-MB-435.
In assay [13] the test system is NCI-H226 lung.
For assay [14], the system named is NCI-H23 lung.
The test system of assay [15] is NCI-H460 lung.
For assay [16], the system named is NCI-H522 lung.
The test system of assay [17] is OVCAR-3 ovarian.
Assay [18] deals with OVCAR-4 ovarian.
Assay [19] concerns RPMI-8226 leukemia.
Assay [20] relates to SF-268 CNS.
Assay [21] relates to SK-MEL-2 melanoma.
Assay [22] relates to SK-MEL-28 melanoma.
Assay [23] deals with SK-MEL-5 melanoma.
Assay [24] has as its system SNB-75 CNS.
The test system of assay [25] is SR leukemia.
Assay [26] has as its system T-47D breast.
For assay [27], the system named is U251 CNS.
In assay [28] the test system is UACC-257 melanoma.
The subject of assay [29] is UACC-62 melanoma.
Assay [30] concerns CAKI-1 renal.
The subject of assay [31] is DU-145 prostate.
For assay [32], the system named is SF-295 CNS.
Assay [33] relates to TK-10 renal.

The structures appear in SMILES notation.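 Values below derive from 48-hour exposures of cells grown in 96-well plates, with endpoints linearly interpolated between the two concentrations bracketing the appropriate inhibition level. GI50 = concentration required for 50% inhibition of growth.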 Not every entry of the source has a single result; some have several. The other results are left out here. There may be further records. For some assays here: Records of one sample usually come from different ranges of test concentrations, which the source does not state; some values may only mark the edge of a range. For some assays here: Values given together repeat one measurement (runs, samples, wells, individuals or studies). Records carry a tag for their origin. A, B and so on number the origins entry by entry.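 TGI is the concentration that stops growth completely.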 Where only a bound is given, the exact number is not on record here.

Regarding `COc1cccc([C@H]2CC(=O)c3cc4c(cc3N2)OCO4)c1`, the TGI in [1] was 3.04 µM and > 100 µM; in assay [2] it was 345 nM and > 100 µM; in assay [3], 1.75 µM and > 100 µM; in [4], 7 µM and > 100 µM; in assay [5], 884 nM and > 100 µM.

In the case of `CN1CCc2cc3c(cc2C1O)OCO3` (stereo not given), the GI50 in [6] was > 100 µM [sample A, 1 test] and 210 nM [sample B, mean of 2 tests]; in [7] it was > 100 µM [sample A, 1 test] and 8.37 µM [sample B, mean of 2 tests]; in assay [8], > 100 µM [sample A, 1 test] and 7.54 µM [sample B, mean of 2 tests]; in assay [9], > 100 µM [sample A, 1 test] and 8.21 µM [sample B, mean of 2 tests]; in [10], > 100 µM [sample A, 1 test] and 1.82 µM [sample B, mean of 2 tests]; in assay [11], > 100 µM [sample A, 1 test] and 5.82 µM [sample B, mean of 2 tests]. The GI50 in assay [12] was > 100 µM [sample A, 1 test] and 2.45 µM [sample B, mean of 2 tests]; in assay [13] it was > 100 µM [sample A, 1 test] and 2.53 µM [sample B, 1 test]; in assay [14] it was > 100 µM [sample A, 1 test] and 4.9 µM [sample B, mean of 2 tests]; in assay [15] it was > 100 µM [sample A, 1 test] and 367 nM [sample B, mean of 2 tests]; in assay [16], > 100 µM [sample A, 1 test] and 230 nM [sample B, 1 test]; in assay [17] it was > 100 µM [sample A, 1 test] and 1.98 µM [sample B, mean of 2 tests]. The GI50 in [18] is > 100 µM [sample A, 1 test] and 3.45 µM [sample B, mean of 2 tests]; in assay [19] it was > 100 µM [sample A, 1 test] and 9.61 µM [sample B, mean of 2 tests]; in assay [20] it was > 100 µM [sample A, 1 test] and 9.34 µM [sample B, mean of 2 tests]; in assay [21], > 100 µM [sample A, 1 test] and 3.92 µM [sample B, mean of 2 tests]; in assay [22] it was > 100 µM [sample A, 1 test] and 7.71 µM [sample B, mean of 2 tests]; in [23], > 100 µM [sample A, 1 test] and 568 nM [sample B, mean of 2 tests]. The GI50 in assay [24] is > 100 µM [sample A, 1 test] and 4.33 µM [sample B, mean of 2 tests]; in assay [25], > 100 µM [sample A, 1 test] and 3.31 µM [sample B, mean of 2 tests]; in assay [26], > 100 µM [sample A, 1 test] and 2.68 µM [sample B, 1 test]; in [27] it was > 100 µM [sample A, 1 test] and 7.85 µM [sample B, mean of 2 tests]; in assay [28] it was > 100 µM [sample A, 1 test] and 2.84 µM [sample B, mean of 2 tests]; in assay [29], > 100 µM [sample A, 1 test] and 1.66 µM [sample B, 1 test]. Further, the TGI is > 100 µM [sample A, 1 test] and 436 nM [sample B, mean of 2 tests] in [6]; > 100 µM [sample A, 1 test] and 5.46 µM [sample B, mean of 2 tests] in assay [10]; > 100 µM [sample A, 1 test] and 5.75 µM [sample B, 1 test] in [13]; > 100 µM [sample A, 1 test] and 1.76 µM [sample B, mean of 2 tests] in assay [15]; > 100 µM [sample A, 1 test] and 617 nM [sample B, 1 test] in assay [16]; > 100 µM [sample A, 1 test] and 4.19 µM [sample B, mean of 2 tests] in assay [17]. Besides, the TGI in [23] is > 100 µM [sample A, 1 test] and 1.92 µM [sample B, mean of 2 tests]; in [26] it was > 100 µM [sample A, 1 test] and 7.75 µM [sample B, 1 test]; in [29] it was > 100 µM [sample A, 1 test] and 4.87 µM [sample B, 1 test].

In the case of `CCCC(=O)O`, the TGI in assay [19] is 989 µM and > 18.7 mM.

In the case of `CC(C)[C@](O)(c1ccc2cc(OC(F)F)c(OC(F)F)cc2c1)c1cn[nH]n1`, in [11], the GI50 was 26 nM [sample A, 1 test] and 16.5 µM [sample B, 1 test].

Regarding `Nc1ccn(C2OC(CO)C(O)C2F)c(=O)n1` (stereo not given), the GI50 in assay [3] is 99.5 µM and > 5 mM.

For the compound `Cc1ccc(C(=O)N(CCCN)[C@@H](c2nc3cc(Cl)ccc3c(=O)n2Cc2ccccc2)C(C)C)cc1`, the GI50 was 176 nM [sample A, mean of 2 tests] and < 10 nM [sample B, mean of 2 tests] in assay [30]; < 10 nM [sample A, mean of 2 tests] and 402 nM [sample B, mean of 2 tests] in assay [20]; < 10 nM [sample A, mean of 2 tests] and 1.33 µM [sample B, mean of 2 tests] in assay [33]; < 10 nM [sample A, mean of 2 tests] and 1.2 µM [sample B, mean of 2 tests] in [28]. For the same compound, the TGI is < 10 nM [sample A, 1 test] and 1.33 µM [sample B, mean of 2 tests] in assay [31]; < 10 nM [sample A, mean of 2 tests] and 1.55 µM [sample B, mean of 2 tests] in assay [16]; 124 nM [sample A, mean of 2 tests] and 1.58 µM [sample B, mean of 2 tests] in [17]; < 10.5 nM [sample A, mean of 2 tests] and 369 nM [sample B, mean of 2 tests] in assay [32]; < 10 nM [sample A, 1 test] and 2.27 µM [sample B, mean of 2 tests] in [21].
